In the supplement of paper PMC4604168 (melanoma cell lines):
The list shows a part of the results. Repeats are few or missing, and single values can be far off.

What was measured:
Assay in all cases: cell count relative to DMSO control; melanoma cells; higher = more viable cells
Conditions in all cases: library dose: low library concentration; 72 h
MZ2-MEL = test system: MZ2-MEL
MeWo = test system: MeWo
RPMI7951 = test system: RPMI7951
RVH-421 = test system: RVH-421
SkMel28 = test system: SkMel28
SkMel30 = test system: SkMel30
UACC62 = test system: UACC62
SkMel5 = test system: SkMel5
UACC257 = test system: UACC257
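Note: cell number obtained by counting DAPI-stained nuclei in high-throughput microscope images with image analysis software, screen run in 1,536-well plates.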

Row | Compound | cell count (MZ2-MEL) [%] | cell count (MeWo) [%] | cell count (RPMI7951) [%] | cell count (RVH-421) [%] | cell count (SkMel28) [%] | cell count (SkMel30) [%] | cell count (UACC62) [%] | cell count (SkMel5) [%] | cell count (UACC257) [%]
1 | C[C@]12O[C@H](C[C@]1(O)CO)n1c3ccccc3c3c4c(c5c6ccccc6n2c5c31)CNC4=O [Lestaurtinib] + CS(=O)(=O)c1ccc(C(=O)Nc2ccc(Cl)c(-c3ccccn3)c2)c(Cl)c1 [vismodegib] (first compound 0.004 µM, partner dose 1 µM) | 100 | 73.9 | 98.8 | 92 | 90.6 | 90.9 | 96.6 | – | –
2 | C[C@]12O[C@H](C[C@]1(O)CO)n1c3ccccc3c3c4c(c5c6ccccc6n2c5c31)CNC4=O [Lestaurtinib] + CC(C)CCN1c2nc(Nc3cc(F)c(O)c(F)c3)ncc2N(C)C(=O)C1C [BID1870] (first compound 0.004 µM, partner dose 0.2 µM) | 105 | 76.5 | 106 | 115 | 91.1 | 77.9 | 95.1 | 95.3 | 70.1
3 | C[C@]12O[C@H](C[C@]1(O)CO)n1c3ccccc3c3c4c(c5c6ccccc6n2c5c31)CNC4=O [Lestaurtinib] + CN(C)S(=O)(=O)c1ccc2c(c1)/C(=C/c1cc3c([nH]1)CCCC3)C(=O)N2 [SU6656] (first compound 0.004 µM, partner dose 0.4 µM) | 99.3 | 86 | 107 | 81.9 | 95.8 | 87 | 73.3 | 103 | 92.1
4 | C[As](C)SC[C@H](NC(=O)CC[C@H](N)C(=O)O)C(=O)NCC(=O)O [Darinaparsin] + Cc1cc([N+](=O)[O-])ccc1NS(=O)(=O)c1cc(Cl)ccc1Cl [FH535] (first compound 0.4 µM, partner dose 1 µM) | 97.5 | 85.9 | 126 | 98.8 | 90.7 | 91.8 | 83.3 | 89.6 | 76.6
5 | C[C@]12O[C@H](C[C@]1(O)CO)n1c3ccccc3c3c4c(c5c6ccccc6n2c5c31)CNC4=O [Lestaurtinib] + CNC(=O)c1cc(Oc2ccc(NC(=O)Nc3ccc(Cl)c(C(F)(F)F)c3)cc2)ccn1 [sorafenib] (first compound 0.004 µM, partner dose 0.4 µM) | 85.9 | 79.3 | 100 | 79.2 | 111 | 96.5 | 76.4 | – | –
6 | C[C@]12O[C@H](C[C@]1(O)CO)n1c3ccccc3c3c4c(c5c6ccccc6n2c5c31)CNC4=O [Lestaurtinib] + CC(=O)O[C@@]12CO[C@@H]1C[C@H](O)[C@@]1(C)C(=O)[C@H](O)C3=C(C)[C@@H](OC(=O)[C@H](O)[C@@H](NC(=O)OC(C)(C)C)c4ccccc4)C[C@@](O)([C@@H](OC(=O)c4ccccc4)[C@H]21)C3(C)C [Docetaxel] (first compound 0.004 µM, partner dose 0.0001 µM) | 82.3 | 56.9 | 60.5 | 83.9 | 86.2 | 55.6 | 41.3 | – | –
7 | C[C@]12O[C@H](C[C@]1(O)CO)n1c3ccccc3c3c4c(c5c6ccccc6n2c5c31)CNC4=O [Lestaurtinib] + Nc1cccc2c1CN(C1CCC(=O)NC1=O)C2=O [lenalidomide] (first compound 0.004 µM, partner dose 1 µM) | 99.6 | 86.3 | 88.9 | 102 | 127 | 101 | 100 | – | –
8 | C[C@]12O[C@H](C[C@]1(O)CO)n1c3ccccc3c3c4c(c5c6ccccc6n2c5c31)CNC4=O [Lestaurtinib] + CC(=O)c1c(C)c2cnc(Nc3ccc(N4CCNCC4)cn3)nc2n(C2CCCC2)c1=O [palbociclib] (first compound 0.004 µM, partner dose 0.04 µM) | 85.3 | 93.9 | 91.1 | 85 | 74.4 | 80.3 | 86.5 | – | –
9 | C[C@]12O[C@H](C[C@]1(O)CO)n1c3ccccc3c3c4c(c5c6ccccc6n2c5c31)CNC4=O [Lestaurtinib] + O=C(O)[C@@H]1[O][Sb](=[O])([O][Sb]2(=[O])[O][C@H]([C@H](O)CO)[C@H](O)[C@H](C(=O)O)[O]2)[O][C@H]([C@H](O)CO)[C@@H]1O [stibogluconate] (first compound 0.004 µM, partner dose 2 µM) | 91 | 104 | 119 | 113 | 117 | 103 | 107 | – | –
10 | C[C@]12O[C@H](C[C@]1(O)CO)n1c3ccccc3c3c4c(c5c6ccccc6n2c5c31)CNC4=O [Lestaurtinib] + C[C@]1(O)C[C@@H](c2nc(-c3ccc4ccc(-c5ccccc5)nc4c3)c3c(N)nccn32)C1 [OSI906] (first compound 0.004 µM, partner dose 0.4 µM) | 94 | 90 | 98.3 | 95.9 | 85.1 | 77.4 | 82.9 | – | –
11 | C[As](C)SC[C@H](NC(=O)CC[C@H](N)C(=O)O)C(=O)NCC(=O)O [Darinaparsin] + CCN(CC)CCCCNc1ncc2cc(-c3cc(OC)cc(OC)c3)c(NC(=O)NC(C)(C)C)nc2n1 [PD173074] (first compound 0.4 µM, partner dose 0.1 µM) | 103 | 104 | 118 | 86.8 | 97.7 | 89.2 | 116 | 88.2 | 95.5
12 | C[C@]12O[C@H](C[C@]1(O)CO)n1c3ccccc3c3c4c(c5c6ccccc6n2c5c31)CNC4=O [Lestaurtinib] + COc1ccc(-c2ccc3c(N4CCOCC4)nc(N4C[C@@H](C)O[C@@H](C)C4)nc3n2)cc1CO [KU0063794] (first compound 0.004 µM, partner dose 0.02 µM) | 94.1 | 74.7 | 93.4 | 105 | 98 | 76.4 | 101 | 111 | 73.2
13 | C[C@]12O[C@H](C[C@]1(O)CO)n1c3ccccc3c3c4c(c5c6ccccc6n2c5c31)CNC4=O [Lestaurtinib] + c1cc(-c2cnn3cc(-c4ccc(OCCN5CCCCC5)cc4)cnc23)ccn1 [Dorsomorphin] (first compound 0.004 µM, partner dose 0.4 µM) | 106 | 80.5 | 107 | 95 | 112 | 93.9 | 105 | 81 | 101
14 | C[C@]12O[C@H](C[C@]1(O)CO)n1c3ccccc3c3c4c(c5c6ccccc6n2c5c31)CNC4=O [Lestaurtinib] + Clc1ccc(Nc2nnc(Cc3ccncc3)c3ccccc23)cc1 [vatalanib] (first compound 0.004 µM, partner dose 2 µM) | 98.2 | 67 | 95.5 | 143 | 101 | 95.7 | 78.5 | – | –
15 | C[C@]12O[C@H](C[C@]1(O)CO)n1c3ccccc3c3c4c(c5c6ccccc6n2c5c31)CNC4=O [Lestaurtinib] + CS(=O)(=O)CCNCc1ccc(-c2ccc3ncnc(Nc4ccc(OCc5cccc(F)c5)c(Cl)c4)c3c2)o1 [lapatinib] (first compound 0.004 µM, partner dose 0.8 µM) | 94.8 | 85.4 | 106 | 106 | 94.8 | 92.8 | 96.1 | – | –
16 | Cn1cc(C2=C(c3cn(C4CCN(Cc5ccccn5)CC4)c4ccccc34)C(=O)NC2=O)c2ccccc21 [Enzastaurin] + C[C@]12O[C@H](C[C@]1(O)CO)n1c3ccccc3c3c4c(c5c6ccccc6n2c5c31)CNC4=O [Lestaurtinib] (first compound 0.8 µM, partner dose 0.004 µM) | 88.5 | 94.7 | 97.5 | 93.5 | 85 | 97 | 92.5 | – | –
17 | C[C@]12O[C@H](C[C@]1(O)CO)n1c3ccccc3c3c4c(c5c6ccccc6n2c5c31)CNC4=O [Lestaurtinib] + O=c1cc(-c2cccc3c2Sc2ccccc2S3)oc(N2CCOCC2)c1 [KU55933] (first compound 0.004 µM, partner dose 1 µM) | 103 | 94 | 91 | 123 | 85.4 | 73.1 | 94.6 | 101 | 80.9
18 | C[C@]12O[C@H](C[C@]1(O)CO)n1c3ccccc3c3c4c(c5c6ccccc6n2c5c31)CNC4=O [Lestaurtinib] + COc1ccc(COc2ccc(Cc3cnc(N)nc3N)cc2OC)cc1 [GW2580] (first compound 0.004 µM, partner dose 1 µM) | 104 | 85.5 | 101 | 85.5 | 94.1 | 86.1 | 82.3 | 101 | 79.6
19 | C[As](C)SC[C@H](NC(=O)CC[C@H](N)C(=O)O)C(=O)NCC(=O)O [Darinaparsin] + CCCCCCCCCCCC1=C(O)C(=O)C=C(O)C1=O [Embelin] (first compound 0.4 µM, partner dose 1.2 µM) | 95.9 | 99 | 108 | 100 | 94.2 | 98.1 | 99.6 | 97.9 | 88.6
20 | C[C@]12O[C@H](C[C@]1(O)CO)n1c3ccccc3c3c4c(c5c6ccccc6n2c5c31)CNC4=O [Lestaurtinib] + Cc1cc(SCc2sc(-c3ccc(C(F)(F)F)c(F)c3)nc2C)ccc1OCC(=O)O [GW0742] (first compound 0.004 µM, partner dose 2 µM) | 98.5 | 100 | 124 | 98 | 115 | 89.4 | 113 | 122 | 99.7
21 | C[C@]12O[C@H](C[C@]1(O)CO)n1c3ccccc3c3c4c(c5c6ccccc6n2c5c31)CNC4=O [Lestaurtinib] + CN1CCN(c2ccc3nc(-c4c(N)c5c(F)cccc5[nH]c4=O)[nH]c3c2)CC1 [Dovitinib] (first compound 0.004 µM, partner dose 0.1 µM) | 103 | 76 | 106 | 90.2 | 101 | 71.3 | 68.3 | – | –
22 | C[C@]12O[C@H](C[C@]1(O)CO)n1c3ccccc3c3c4c(c5c6ccccc6n2c5c31)CNC4=O [Lestaurtinib] + CC1(C)NC(=O)N(c2ccc([N+](=O)[O-])c(C(F)(F)F)c2)C1=O [nilutamide] (first compound 0.004 µM, partner dose 1 µM) | 108 | 91.2 | 109 | 100 | 115 | 85.2 | 88.1 | 118 | 99.1
